# Assay results from PubChem BioAssay AID1259400 (National Center for Advancing Translational Sciences (NCATS), 2018).
# Among all 350,000 compounds or so, about 2,100 (0.6%) were called active. The inconclusive results got no clear call from the source; some entries with a clear call stand among them for comparison.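 The calls were made as follows: active = activity change of -60% or lower, but not beyond a set lower limit; inconclusive = change between -60% and -40%, or beyond the set limit; inactive = change above -40%.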
# Target: Relaxin receptor 1 (Homo sapiens) (UniProt Q9HBX9)
# Experiment: qHTS Assay for Antagonists of the Relaxin Receptor RXFP1
# Conditions: HEK293-RXFP1, relaxin-stimulated cAMP HTRF, 30 min; at 57.5 µM; active compounds read low
# % is scaled to controls: 0 for no effect and ±100 for the full control effect.
# UniProt Q9HBX9, sequence (Q9HBX9 whole entry, looked up): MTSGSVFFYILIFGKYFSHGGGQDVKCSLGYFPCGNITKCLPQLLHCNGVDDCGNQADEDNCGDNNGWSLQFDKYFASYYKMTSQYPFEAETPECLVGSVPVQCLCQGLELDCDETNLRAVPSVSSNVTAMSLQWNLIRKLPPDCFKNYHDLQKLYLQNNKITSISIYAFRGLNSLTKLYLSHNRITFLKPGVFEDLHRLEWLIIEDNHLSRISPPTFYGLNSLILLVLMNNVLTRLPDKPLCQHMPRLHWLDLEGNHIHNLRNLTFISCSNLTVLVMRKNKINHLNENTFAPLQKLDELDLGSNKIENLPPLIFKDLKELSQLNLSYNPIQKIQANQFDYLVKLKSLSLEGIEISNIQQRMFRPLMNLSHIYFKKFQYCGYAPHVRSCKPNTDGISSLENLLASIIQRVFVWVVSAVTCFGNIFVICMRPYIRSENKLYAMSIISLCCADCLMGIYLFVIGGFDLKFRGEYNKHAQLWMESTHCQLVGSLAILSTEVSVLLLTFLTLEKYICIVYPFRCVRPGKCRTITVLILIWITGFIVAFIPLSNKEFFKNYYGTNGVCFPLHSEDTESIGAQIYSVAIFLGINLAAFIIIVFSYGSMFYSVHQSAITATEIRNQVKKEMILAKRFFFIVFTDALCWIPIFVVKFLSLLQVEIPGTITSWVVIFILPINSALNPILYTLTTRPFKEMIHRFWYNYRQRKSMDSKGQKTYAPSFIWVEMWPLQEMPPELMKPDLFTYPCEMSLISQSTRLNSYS
row,Structure (SMILES),"activity change, negative = inhibition"
1,CCC1CN(C(=O)NCc2ccc(C)cc2)c2cc(Cl)ccc2O1 (centres undefined),inconclusive: -46.5%
2,Cc1ccc(-c2csc(C3C(N)=NC(S)=C(C#N)C34CCCCC4)n2)cc1 (centres undefined),inconclusive: -52.1%
3,CC1CCCN(CCCNC(=O)c2cc3c(s2)-c2ccccc2OC3)C1 (centres undefined),inconclusive: -45.3%
4,CCOc1ccc(N(C)c2ccc(/C=C3/SC(=S)NC3=O)cc2)cc1,inconclusive: -57.5%
5,COc1cccc(C(=O)c2cc3cc(Cl)ccc3[nH]2)c1,inconclusive: -47.3%
6,O=C(Oc1ccccc1)c1cccc(C(=O)Oc2ccccc2)c1,inconclusive: -45.8%
7,Cc1ccccc1OCC(=O)NNC(=O)C1CCN(c2ncnc3sc(C)c(C)c23)CC1,active: -67.8%
8,O=S(=O)(Nc1cccnc1)c1ccccc1,inconclusive: -46.4%
9,COc1ccc(CN2CCN(Cc3ccccc3C(F)(F)F)CC2)c(OC)c1,inconclusive: -42.5%
10,Cc1ccc(S(=O)(=O)c2c(C(=O)c3ccccc3)cnc3cc4c(cc23)OCCO4)cc1,inactive: -18.5%
11,CCOc1cc(CNC(=O)c2ccc(Cn3c(=O)c4cccn4c4cccnc43)cc2)ccc1OC,inactive: 4.62%
12,O=C(Cn1nc(-c2ccccc2)ccc1=O)Nc1ccc(-n2cnnn2)cc1,inconclusive: -54.7%
13,Cc1cccc(NC(=O)C2CCCN(S(=O)(=O)c3ccc4[nH]c(=O)ccc4c3)C2)c1 (centres undefined),inconclusive: -41.5%
14,CCC1CCCCN1C(=O)CSc1nnc(-c2cccc(Cl)c2)o1 (centres undefined),inactive: -17.4%
15,c1ccc(Nc2c3c(nc4ccccc24)CCC3)cc1,inconclusive: -42.5%
16,Cc1sc2ncnc(N3CCN(Cc4ccccc4)CC3)c2c1-c1ccccc1,inconclusive: -55.4%
17,O=S(=O)(Nc1nccs1)c1ccc(Nc2nnc(-c3ccccc3)c3ccccc23)cc1,inconclusive: -45.2%
18,CCOC(=O)c1nnc(-c2ccc(C)cc2)nc1N1CCSCC1,active: -68.1%
19,Cc1ccc(C(C)C)c(OCCCn2c(=O)oc3ccccc32)c1,inconclusive: -44.5%
20,CC(C)NC(=O)/C(C#N)=C/c1cccc(NC(=O)c2ccccc2Cl)c1,active: -62.8%
21,CCC1(c2ccccc2)SCC(c2ccccc2)=NC1=O (centres undefined),active: -61.7%
22,Cc1ccnc(NS(=O)(=O)c2ccc(NC(=O)c3cc(-c4ccc(Br)cc4)nc4ccccc34)cc2)n1,inconclusive: -44.1%
23,Cc1ccc(/C=C/c2ccc3cccc(O)c3n2)s1,inconclusive: -46.1%
24,Cc1ccc(NS(=O)(=O)c2ccc3[nH]c4c(c3c2)CCCCCC4)cc1,inconclusive: -47.7%
